Measured values published in PubChem BioAssay (NCI).
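Five concentrations, 48 hours, 96-well plates. GI50 marks 50% less growth. At the TGI there is no net growth.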

What follows are compounds tested on NCI-H322M lung (assay: NCI-60 cell line screen, 48 h).

`COC(=O)N/N=C(/CCC(=O)Nc1ccc(C)c(C)c1)CC(=O)C(C)(C)C` and `COC(=O)[C@@H](Cc1ccccc1)N1O[C@]12CCCC[C@@H]2NC(=O)OC(C)(C)C` (stereo partly drawn) cannot be ordered by TGI: over 100 µM for the first, over 100 µM for the second.

Going from `Cc1ccc(C2=Nc3c(N)ncnc3NC(c3ccc4c(c3)OCO4)C2)cc1` (stereo not drawn) to `Nc1nc(N)c2c(n1)NC(c1ccccc1)C1CCc3ccccc3C1=N2` (stereo not drawn), the TGI falls from over 100 µM to 22.1 µM.

`Oc1cccc2cc(Br)cnc12` and `CCOC(=O)c1nc2ccccc2nc1Oc1cc(OC)c(OC)c(OC)c1` cannot be ordered by TGI: over 100 µM for the first, over 100 µM for the second.

In order of rising GI50:
1. Nc1nc(N)c2c(n1)NC(c1ccccc1)C1CCc3ccccc3C1=N2 (stereo not drawn)  10.1 µM
2. Cc1ccc(C2=Nc3c(N)ncnc3NC(c3ccc4c(c3)OCO4)C2)cc1 (stereo not drawn)  16.5 µM
